Measured values from PubChem BioAssay AID411 (National Center for Advancing Translational Sciences (NCATS), 2006).
About 1,600 (2.2%) of roughly 72,000 compounds were called active. The inconclusive results got no clear call from the source; some entries with a clear call stand among them for comparison. Calls come from the whole dose curve; as a rule, active = well fitted inhibition curve with a large enough effect; inconclusive = small, poorly fitted or top-dose-only effect; inactive = flat fitted curve, though single readings scatter. No potency is given beside an inconclusive call; the fits are too rough.

biological target: Luciferin 4-monooxygenase (Photinus pyralis) (UniProt P08659); assay: qHTS Assay for Inhibitors of Firefly Luciferase; conditions: purified firefly luciferase, luminescence, 8 min; series mostly up to 57.1 µM; activity change, negative = inhibition: at the top concentration; note: nearly all actives have a fitted effect of over 40% in size
Summary of the method: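 Compounds were tested as concentration series (qHTS) against purified P. pyralis luciferase with luciferin and 10 uM ATP in 50 mM imidazole pH 7.2, 50 mM KCl, 7 mM MgCl2, 0.01% Tween 20, 0.05% BSA. Luminescence was read after 8 min at ambient temperature.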
% is set by controls: 0 for no effect and ±100 for the full control effect; potency is the fitted concentration of half-maximal effect; tags give direction and shape of the fitted curve.

Sequence of UniProt P08659 (P08659 whole entry, looked up): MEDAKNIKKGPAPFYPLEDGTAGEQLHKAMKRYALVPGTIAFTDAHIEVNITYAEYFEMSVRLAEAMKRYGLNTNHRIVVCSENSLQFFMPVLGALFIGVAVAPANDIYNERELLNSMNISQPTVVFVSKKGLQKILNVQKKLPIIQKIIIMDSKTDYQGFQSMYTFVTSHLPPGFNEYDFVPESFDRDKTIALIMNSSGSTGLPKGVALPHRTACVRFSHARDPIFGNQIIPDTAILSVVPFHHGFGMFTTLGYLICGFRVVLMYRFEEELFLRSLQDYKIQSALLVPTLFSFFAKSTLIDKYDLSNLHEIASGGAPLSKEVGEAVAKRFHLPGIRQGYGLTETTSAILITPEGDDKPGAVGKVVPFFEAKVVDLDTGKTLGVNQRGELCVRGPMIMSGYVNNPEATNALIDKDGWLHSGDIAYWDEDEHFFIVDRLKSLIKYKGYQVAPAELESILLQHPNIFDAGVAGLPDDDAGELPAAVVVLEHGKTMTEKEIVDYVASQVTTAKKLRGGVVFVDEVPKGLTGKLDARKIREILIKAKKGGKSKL

How did the Potency turn out when CC(=O)Nc1ccc(-c2nc3c(C)cccc3[nH]2)cc1 was run?
The Potency was active: 3.16 µM.

How did the Potency turn out when COc1ccc(-n2nc3cc(C)c(NC(=O)C(C)C)cc3n2)cc1 was run?
Its Potency is inconclusive [inhibitor, full curve].

With O=C(Nc1ccc(F)c(Cl)c1)c1ccc2c(=O)n3c(nc2c1)CCCCC3 as the compound, how does the Potency read?
The Potency was inconclusive [inhibitor, partial curve].

How did the Potency turn out when COC(=O)Nc1nnc(-c2ccccc2Cl)s1 was run?
The Potency was inconclusive [inhibitor, single point].

Which “activity change, negative = inhibition” value does the source give for CC(=O)Oc1c2occc2cc2ccc(=O)oc12 here?
Its value is inactive: -1.56%.

How did the Potency turn out when CCCN1C(=O)c2cc(C(=O)NC3CCCCCC3)ccc2C1O (centres undefined) was run?
Its Potency is inconclusive [inhibitor, partial curve].

For CCOc1ccccc1NC(=O)CCC(=O)Nc1ccc2nc(N3CCN(C)CC3)cc(C)c2c1, which Potency is on record?
The Potency was inconclusive [inhibitor, partial curve].

Which Potency does the source give for Cc1ccc(C2=N/C(=C/N3CCOCC3)C(=O)O2)cc1 here?
The Potency was active: 20 µM.

For O=C(c1ccccc1)c1cc(-c2ccccc2)on1, which Potency is on record?
Its Potency is active: 1.58 µM.

For COC(=O)c1cccc(C(=O)Nc2ccc(C)cc2)n1, which Potency is on record?
The Potency was inconclusive [inhibitor, single point].

O=C(Nc1sc2c(c1C(=O)O)CCC2)c1cccs1 was tested. Which “activity change, negative = inhibition” value did it give?
The value was inactive: -2.57%.

COc1ccccc1N1CCN(C(=O)CSc2ncccc2-c2nc3ccccc3[nH]2)CC1 was tested. Which Potency did it give?
The Potency was inconclusive [inhibitor, single point].

For COc1ccc(C2NC3=C(CCC3)C3(C#N)C(OC)(OC)N=C(N)C23C#N)cc1 (centres undefined), which “activity change, negative = inhibition” value is on record?
Its value is inactive: 0.0398% [at 25.5 µM].

Cc1nnc(NC(=O)CSc2cn(CCNC(=O)c3ccccc3)c3ccccc23)s1 was tested. Which Potency did it give?
Its Potency is inconclusive [inhibitor, partial curve].

For O=C(CN1CCOCC1)Nc1ccc(-c2nc3ccccc3[nH]2)cc1, which Potency is on record?
The Potency was active: 15.8 µM.

CCOC(=O)N1CCN(c2nc(-c3ccc(F)cc3)cs2)CC1 was tested. Which Potency did it give?
The Potency was inconclusive [inhibitor, single point].

For COc1ccc(CCn2c(N)c(C(=O)NCc3ccco3)c3nc4ccccc4nc32)cc1OC, which “activity change, negative = inhibition” value is on record?
Its value is inactive: 0.625%.

For Nc1ncnc2c1nc(Sc1ccc(Cl)cc1)n2[C@@H]1O[C@H]2COP(=O)(O)O[C@@H]2[C@H]1O, which “activity change, negative = inhibition” value is on record?
Its value is inactive: 3.76%.

How did the activity change, negative = inhibition turn out when O=C(O)c1cc(=O)[nH]c(=S)[nH]1 was run?
Its activity change, negative = inhibition is inactive: 0.597% [at 11.4 µM].

Which Potency does the source give for C=CCOC(=O)c1sc(NC(=O)c2ccco2)nc1C here?
The Potency was inconclusive [inhibitor, partial curve].

How did the “activity change, negative = inhibition” value turn out when Cc1ccc(NC(=O)CSc2nnc(-c3cnccn3)n2Cc2ccco2)cc1C was run?
The value was inactive: 3.02%.

With CCOc1ccc(C(=O)Nc2cc(OC)ccc2OC)cc1 as the compound, how does the Potency read?
The Potency was inconclusive [inhibitor, partial curve].

Which Potency does the source give for CCN1C(=S)SC(=O)C1=C1C=C(C)N(CCO)C(C)=C1 here?
The Potency was inconclusive [inhibitor, partial curve].

How did the Potency turn out when Clc1ccc(Nc2ncnc3c2cnn3-c2ccccc2)cc1 was run?
Its Potency is inconclusive [inhibitor, partial curve].

For CCc1ccc(-c2nn[nH]n2)cc1, which Potency is on record?
The Potency was inconclusive [inhibitor, partial curve].

Which “activity change, negative = inhibition” value does the source give for NC1=CC(=O)c2cccc3cccc1c23 here?
The value was inactive: -9.87%.

Which Potency does the source give for CNCCCCOc1ccccc1Cc1ccccc1 here?
Its Potency is inconclusive [inhibitor, single point].

For CC(C)c1ccc(OCc2nc(-c3ccccn3)no2)c(Br)c1, which Potency is on record?
The Potency was active: 15.8 µM.

For NC(=O)c1ccsc1NC(=O)COC(=O)c1ccccc1NCc1ccco1, which Potency is on record?
Its Potency is inconclusive [inhibitor, partial curve].

With CCCCC1CCC(c2nc(-c3ccccn3)no2)CC1 (centres undefined) as the compound, how does the Potency read?
The Potency was inconclusive [inhibitor, single point].

Which Potency does the source give for Cc1ccc2[nH]c(-c3ccccc3)cc(=O)c2c1 here?
The Potency was active: 5.01 µM.

CCN(CC)S(=O)(=O)c1cccc(C(=O)Nc2nc3cc4c(cc3s2)OCCO4)c1 was tested. Which Potency did it give?
Its Potency is inconclusive [inhibitor, partial curve].

How did the Potency turn out when COc1ccc(-n2ncc3c(N4CCc5ccccc54)ncnc32)cc1 was run?
Its Potency is inconclusive [inhibitor, full curve].

How did the “activity change, negative = inhibition” value turn out when CNC(=O)[C@H]1O[C@H](n2cnc3c(NCc4cccc(I)c4)ncnc32)[C@@H](O)[C@@H]1O was run?
Its value is inactive: 0.752%.

CC(=NCc1ccco1)c1c(C)[nH]n(-c2nc3ccccc3s2)c1=O was tested. Which Potency did it give?
Its Potency is active: 2 µM.

How did the Potency turn out when Cc1nn2cc(-c3ccccc3)nc2s1 was run?
The Potency was active: 10 µM.

How did the Potency turn out when COc1ccc(-c2noc(-c3ccccc3C(=O)Nc3cccnc3)n2)cc1 was run?
The Potency was inconclusive [inhibitor, single point].

Which “activity change, negative = inhibition” value does the source give for Cc1ccc(C)c(C(=O)c2c(C)nc3sccn23)c1 here?
Its value is inactive: 4.73%.

Cn1c(SCC(=O)Nc2ccc(N3CCOCC3)cc2)nnc1-c1ccccc1 was tested. Which Potency did it give?
Its Potency is inconclusive [inhibitor, partial curve].

For O=C(COC(=O)c1cccs1)c1ccccc1, which Potency is on record?
Its Potency is active: 5.01 µM.

Which Potency does the source give for COc1ccc(NC(=O)Nc2cc(C)ccn2)cc1 here?
The Potency was active: 1.58 µM.

Which Potency does the source give for COc1ccc(OCCSc2ncccn2)cc1 here?
The Potency was active: 25.1 µM.

Which Potency does the source give for O=C(NCCSc1ccccc1)c1ccccc1 here?
Its Potency is inconclusive [inhibitor, single point].

For Cc1cnc(NC(=O)COc2ccccc2)s1, which Potency is on record?
The Potency was inconclusive [inhibitor, single point].

With CCOc1ccc2nc(N3CCCC(C(=O)N4CCN(CC)CC4)C3)sc2c1 (centres undefined) as the compound, how does the Potency read?
The Potency was inconclusive [inhibitor, partial curve].

For O=C(CC(=O)Nc1ccccn1)Nc1ccccn1, which “activity change, negative = inhibition” value is on record?
The value was inactive: -1.66%.

How did the Potency turn out when Nc1ccc(-c2nc3c(Cl)cc(N)cc3[nH]2)cc1 was run?
The Potency was inconclusive [inhibitor, single point].

For COC(=O)CSc1ccc2c(N)c(C(=O)OC)sc2c1, which Potency is on record?
The Potency was inconclusive [inhibitor, partial curve].

With [O-]/[N+](=C\c1ccc(OC(F)F)cc1)c1ccccc1 as the compound, how does the Potency read?
Its Potency is inconclusive [inhibitor, single point].

With COC(=O)c1c(-c2ccncc2)csc1NC(=O)c1ccoc1C as the compound, how does the Potency read?
The Potency was inconclusive [inhibitor, partial curve].

For Cc1ccc2cc(CCNC(=O)c3ccco3)c(=O)[nH]c2c1C, which Potency is on record?
The Potency was inconclusive [inhibitor, partial curve].

How did the Potency turn out when Cn1ccnc1SCc1cn2cc(Br)ccc2n1 was run?
The Potency was active: 15.8 µM.

With CCOc1ccc(-c2nnc(SCC(=O)N3CCOCC3)o2)cc1 as the compound, how does the Potency read?
The Potency was inconclusive [inhibitor, single point].

With CCC(C)[C@@H](C(=O)Nc1ccc2c(c1)OCO2)N1Cc2ccccc2C1=O (some centres undefined) as the compound, how does the “activity change, negative = inhibition” value read?
Its value is inactive: -4.35%.

With COC(=O)C/C=C\[C@@H](C)[C@@H](/C=N\OC[C@@H]1O[C@H](c2ccccc2)C=C[C@@H]1Oc1ccc(OC)cc1)OC as the compound, how does the activity change, negative = inhibition read?
Its activity change, negative = inhibition is inactive: 0.0784% [at 11.4 µM].

For Oc1ccccc1-c1cc(-c2ccc3c(c2)OCCO3)n[nH]1, which Potency is on record?
The Potency was active: 3.16 µM.

COc1cc(C2CC(=O)N3CN(c4ccccc4C)CSC3=C2C#N)cc(OC)c1OC (centres undefined) was tested. Which “activity change, negative = inhibition” value did it give?
Its value is inactive: -16.9%.

Which Potency does the source give for COc1cc(OC)cc(C(=O)Nc2cccc(C(C)=O)c2)c1 here?
Its Potency is inconclusive [inhibitor, single point].

How did the Potency turn out when O=C(Oc1ccc(/C=N/O)cc1)c1ccccc1 was run?
The Potency was inconclusive [inhibitor, partial curve].

For OC(Cc1ccccc1)(Cc1ccccc1)c1ccccc1, which activity change, negative = inhibition is on record?
The activity change, negative = inhibition was inactive: 1.45% [at 11.4 µM].

COc1cccc2c1nc(C)c1cc(C)oc12 was tested. Which Potency did it give?
The Potency was inconclusive [inhibitor, partial curve].

For Cc1nc2ccc3nc(NC(=O)c4ccco4)sc3c2s1, which Potency is on record?
The Potency was inconclusive [inhibitor, partial curve].

How did the Potency turn out when CCCOC(=O)Cn1c(=O)c2cc3c(=O)n(CC(=O)OCCC)c(=O)c3cc2c1=O was run?
Its Potency is inconclusive [inhibitor, partial curve].

For CCCNC(=O)CS(=O)(=O)Cc1nc(-c2cccc(OC)c2)oc1C, which “activity change, negative = inhibition” value is on record?
The value was inactive: -1.02%.

How did the “activity change, negative = inhibition” value turn out when O=C(c1ccco1)N1CCN(c2ncnc3c(-c4ccccc4)nsc23)CC1 was run?
Its value is inactive: -24.7%.

How did the Potency turn out when CN1CCc2cc(NC(=O)Nc3cccnc3)ccc21 was run?
Its Potency is inconclusive [inhibitor, partial curve].

How did the activity change, negative = inhibition turn out when O=C1CCCC=C1[C@H](O)CCCCBr was run?
Its activity change, negative = inhibition is inactive: 0.981% [at 11.4 µM].

Which Potency does the source give for NC(=O)c1ccsc1NC(=O)COc1ccccc1 here?
Its Potency is active: 20 µM.

Which Potency does the source give for CCOC(=O)c1ccc2nc3c(cc2c1)CCS3 here?
Its Potency is inconclusive [inhibitor, partial curve].

How did the “activity change, negative = inhibition” value turn out when COc1ccc(C(=O)C(CN2CCOCC2)c2ccccc2)cc1F (centres undefined) was run?
Its value is inactive: 0.83%.

Which “activity change, negative = inhibition” value does the source give for CC(C)Sc1oc(-c2ccco2)nc1S(=O)(=O)c1ccc(F)cc1 here?
The value was inactive: 1.25%.

Which “activity change, negative = inhibition” value does the source give for Cc1cc(=O)n2[nH]c(C)c(-c3ccc(Cl)cc3)c2n1 here?
Its value is inactive: 0.0392%.

With COC(=O)c1cccc(NC(=O)c2cccc(OC)c2)c1 as the compound, how does the Potency read?
The Potency was inconclusive [inhibitor, single point].

For CCn1c2ccccc2c2nc3cc(OC)c(OC)cc3nc21, which Potency is on record?
The Potency was inconclusive [inhibitor, single point].

Which Potency does the source give for Cc1ccc2nc(NC(=O)C3CCCN(S(=O)(=O)c4cnc[nH]4)C3)sc2c1 (centres undefined) here?
The Potency was inconclusive [inhibitor, partial curve].

For Cc1ccc(-c2ccc(SCC(=O)Nc3nonc3C)nn2)cc1, which Potency is on record?
Its Potency is active: 7.94 µM.

Which Potency does the source give for O=C(O)c1cc(S(=O)(=O)Nc2ccc3c(c2)OCCO3)c(Cl)cc1Cl here?
Its Potency is inconclusive [inhibitor, single point].

With Cc1ccnc(NC(=O)Nc2cccc(F)c2)c1 as the compound, how does the Potency read?
Its Potency is active: 3.16 µM.

For Cc1cc(C)c2c(=O)n(CC(=O)N3CCC(N4CCCCC4)CC3)sc2n1, which Potency is on record?
Its Potency is inconclusive [inhibitor, single point].
